# Test results published in PubChem BioAssay AID463173 (ICCB-Longwood Screening Facility, Harvard Medical School, 2010).
# About 4,300 (8.3%) of roughly 52,000 compounds were called active. Cut-off read from the data, not from the text of the source: active = survival mostly below about 52% (no sharp cut-off); inactive = mostly above about 56%. This is one part of the list.
# System: DeltatarO mutant
# Assay: growth inhibition of S. aureus wild type versus tarO mutant, primary screen, teichoic acid synthesis inhibitors, RN4220, OD600 (AID 463173)
# Details: OD600, 18 h, stronger effect = lower value, screened at 18.75 µg/mL (by protocol)
row,SMILES,survival
1,COc1ccc(CNC(=O)Cc2coc3ccc(C(C)C)cc23)cc1,inactive: 79%
2,Cc1cc(C)c(S(=O)(=O)NCC(c2ccc(N(C)C)cc2)N2CCc3ccccc32)c(C)c1 (stereo not given),inactive: 92%
3,Cc1cc(Nc2cc(Cl)ccc2C)n2nc(Cc3ccccc3)nc2n1,inactive: 50%
4,Cc1ccc(C)c(CN2C(=O)c3ccccc3S(=O)(=O)c3ccc(C(=O)N4CCN(C)CC4)cc32)c1,inactive: 87%
5,O=C(CN1C(=O)COc2ccc(S(=O)(=O)N3CCCCC3)cc21)NCc1ccccc1Cl,inactive: 92%
6,CCC(=O)Nc1nc(C)c(-c2csc(Nc3ccc(S(N)(=O)=O)cc3)n2)s1,inactive: 114%
7,CN(C)CCCN1C(=O)C2CCc3[nH]c4ccccc4c3C2C1=O (stereo not given),inactive: 74%
8,COc1ccc(-n2cc(C(=O)NCc3ccc(Cl)cc3)c3ccccc3c2=O)cc1,inactive: 102%
9,CCOC(=O)C1=C(CN2CCN(c3cc(C)ccc3C)CC2)NC(=O)NC1c1ccccc1 (stereo not given),inactive: 80%
10,O=S(=O)(c1cc(Cl)ccc1Cl)N1CCCC1,inactive: 95%
11,COc1ccc(N(C(=O)c2ccccc2C)S(=O)(=O)c2ccc(C)cc2)cc1,inactive: 70%
12,Cc1ccc2c(c1)c1c(c(=O)n(-c3ccccc3)c(=O)n1CC(=O)NCCC1=CCCCC1)n2C,inactive: 98%
13,CCOC(=O)c1cc(-c2ccc(C)cc2)n(CC(=O)Nc2ccc(OC)c(Cl)c2)c1C,inactive: 67%
14,Cc1ccc(CCNC(=O)c2cc3sccc3n2Cc2ccc(Cl)cc2)cc1,inactive: 79%
15,COc1ccccc1Oc1nc2c(C)cccn2c(=O)c1/C=C(\C#N)c1nc2ccccc2[nH]1,inactive: 71%
16,Cc1nn(CC(=O)NCc2cccc(F)c2)c(=O)c2c(C)n(-c3ccc(Cl)cc3)nc12,inactive: 102%
17,CCCCCOC(=O)c1ccc(Nc2nc(C(=O)OCC)nc3ccccc23)cc1,inactive: 60%
18,Cc1ccc(C(C)C)c(OCC(=O)Nc2nc3c(s2)CCCC3)c1,inactive: 91%
19,COc1ccc(S(=O)(=O)Nc2cc(-c3cn4cccc(C)c4n3)ccc2C)cc1C,active: 53%
20,COc1ccc(NC(=O)CN2C(=O)C(C)Oc3ccccc32)cc1 (stereo not given),inactive: 89%
21,Cc1coc2c1c(C)cc1oc(=O)c(CC(=O)NCc3ccc(Cl)cc3)c(C)c12,inactive: 63%
22,COc1cccc(CN2C(=O)C3(SCC(=O)N3c3cc(C)cc(C)c3)c3ccccc32)c1 (stereo not given),inactive: 71%
23,O=C(c1ccc2c(c1)OCCO2)N(Cc1cccnc1)c1nc2ccc(Cl)cc2s1,inactive: 95%

row,SMILES,survival
1,CCc1ccc2oc(C(=O)NCCc3ccc(OC)c(OC)c3)cc(=O)c2c1,inactive: 52%
2,COc1ccccc1N1CCN(S(=O)(=O)c2cc(-c3cc(C)no3)ccc2C)CC1,inactive: 81%
3,CCC(C)NC(=O)c1ccccc1NC(=O)C1CCN(S(=O)(=O)Cc2ccccc2)CC1 (stereo not given),inactive: 74%
4,Cc1ccc(-c2nnn(CC(=O)N(CC(=O)NCCC(C)C)c3ccc(F)cc3)n2)cc1,active: 41%
5,COc1ccc(-c2nc(S(=O)(=O)c3ccccc3)c(N3CCCCC3)o2)cc1,inactive: 74%
6,CCN(Cc1nc(-c2ccc(OC)cc2)oc1C)S(=O)(=O)c1ccc(Cl)cc1,inactive: 95%
7,Cc1ccc(C)c(OCCCn2c(-c3ccc(Cl)cc3)nc3ccccc3c2=O)c1,inactive: 67%
8,COc1ccc(N2CCN(C(=O)c3cccn4c(=O)c5ccc(Cl)cc5nc34)CC2)cc1,inactive: 113%
9,Cc1cccc(NC(=O)c2ccc(F)c(S(=O)(=O)N(C)C3CCCCC3)c2)c1,inactive: 64%
10,CCOc1ccc(C(=O)N2CCN(Cc3cc(=O)n4nc(-c5cccc(OC)c5)sc4n3)CC2)cc1,inactive: 90%
11,CC(=O)Nc1ccc(Nc2nc3ccc(C)cc3n3nnnc23)cc1,inactive: 94%
12,CCOCCCNC(=O)C(c1ccc(Cl)cc1)N(Cc1ccc2c(c1)OCO2)C(=O)c1ccccc1O (stereo not given),inactive: 54%
13,COc1ccc(NC(=O)C(C)n2nc(C)c3c(C)n(-c4ccccc4)nc3c2=O)cc1Cl (stereo not given),inactive: 105%
14,O=C(COc1ccc(Br)cc1)N1CCOCC1,inactive: 108%
15,CCc1cccc(C)c1NC(=O)COCc1cc(-c2ccc3c(c2)OCO3)on1,inactive: 101%
16,CCc1ccccc1NC(=O)C(=O)c1cc(C)n(-c2ccccc2F)c1C,inactive: 87%
17,Cc1cc(C)c(Cn2c(C)c(CNCc3ccccc3C)c(C(=O)O)c2C)c(C)c1,inactive: 70%
18,O=C(c1ccco1)N(Cc1cccnc1)c1nc2c(F)cccc2s1,inactive: 87%
19,CC1CCCCN1C(=O)CSc1nc2ccccc2nc1Cc1ccc(Cl)cc1 (stereo not given),inactive: 87%
20,CCN1C(=O)c2ccccc2Sc2ccc(NC(=O)Nc3ccc(C(C)=O)cc3)cc21,inactive: 52%
21,Cc1ccc(S(=O)(=O)NCCN2C(=N)N(c3nc(N(C)C)nc(N(C)C)n3)CC2=O)cc1,inactive: 100%
22,Cc1ccccc1CNCCCSc1nnnn1-c1ccccc1,inactive: 68%
23,Cc1ccc2oc(=O)c3cnn(CC(=O)Nc4ccc(Br)cc4C)c3c2c1,inactive: 96%

row,SMILES,survival
1,CCOc1ccc(S(=O)(=O)c2cn(Cc3ccc(C)cc3)c3ccc(OC)cc3c2=O)cc1,inactive: 94%
2,CCOc1ccc2cc(-c3nnc(Nc4ccccc4F)s3)c(=O)oc2c1,inactive: 73%
3,Cc1ccc(CNC(=O)COCc2cc(-c3ccc4c(c3)OCO4)on2)cc1,inactive: 75%
4,Cc1ccc(-c2cnc(NCc3ccc(C(C)C)cc3)n2C)cc1,active: -4%
5,O=C(NCc1cccc(Br)c1)c1ccc(-n2cnc3cccnc32)cc1,inactive: 125%
6,COc1ccc(-c2c[n+](=O)c3c(n2[O-])CCC3)cc1,inactive: 81%
7,Cc1ccc(-n2ncc3c(N4CCC(C)CC4)ncnc32)cc1C,inactive: 94%
8,Cc1cccc(-c2noc(CNC(=O)c3ccc(C)cc3C)n2)c1,active: 37%
9,COc1cc(OC)cc(-c2nc3nc(C)c(CCC(=O)Nc4ccc(C)cc4)c(C)n3n2)c1,inactive: 82%
10,Nc1c(C(=O)Nc2ccccc2Cl)nnn1Cc1cccc(Cl)c1,inactive: 94%
11,Cc1ccc(NCc2nc3ccccc3n2CCOc2ccccc2C)cc1,active: 3%
12,Cc1c(CCNS(=O)(=O)c2ccccc2)sc2nc(-c3ccc(Cl)cc3)nn12,active: 6%
13,CCNc1nc2c(c(=O)n(C)c(=O)n2C)n1CC(O)COc1ccccc1 (stereo not given),inactive: 61%
14,COc1ccc(NC(=O)Nc2cccc(C)n2)c(OC)c1,inactive: 96%
15,Cc1c2cnn(CC(=O)O)c(=O)c2c(C)n1Cc1cccc(Cl)c1,inactive: 91%
16,O=C(CC1N=C2c3ccccc3N=C(SCc3ccc(Cl)cc3)N2C1=O)NC1CCCCC1 (stereo not given),inactive: 78%
17,Cc1cc2c(cc1S(=O)(=O)CCC(=O)Nc1ccc(OC(F)(F)F)cc1)OCC(=O)N2,inactive: 87%
18,O=C(NCC(c1ccc(Cl)cc1)N1CCCCC1)c1ccccc1 (stereo not given),inactive: 61%
19,COc1ccc(NCc2nc3ccccc3n2CCOc2ccc(C)cc2)cc1,active: 17%
20,Cc1ccc(Cl)cc1N1CCN(C(=O)c2cn(C)c3ccc(S(=O)(=O)N4CCC(C)CC4)cc3c2=O)CC1,inactive: 95%
21,Cc1cccc(Cn2c(=O)n(CCc3ccccc3)c(=O)c3sc4ccccc4c32)c1,inactive: 77%
22,Cc1ccc(CCNC(=O)CCSCc2ccccc2F)cc1,active: -4%
23,O=C(CCOc1ccccc1)N(Cc1cccnc1)c1nc2c(Cl)cccc2s1,inactive: 80%

row,SMILES,survival
1,CCOC(=O)c1cc(-c2ccccc2)nn1Cc1ccccc1,active: -12%
2,Cc1ccc(C2c3[nH]c4ccccc4c3CCN2C(=O)c2ccc(N(C)C)cc2)cc1 (stereo not given),inactive: 69%
3,Cc1ccc(C)c(N2CCN(C(=O)C3CCN(Cc4nc(-c5cccc(Cl)c5)oc4C)CC3)CC2)c1,inactive: 47%
4,NC(=O)C1(N2CCCCC2)CCN(C(=O)Nc2ccc(Cl)c(Cl)c2)CC1,inactive: 109%
5,O=C1C=C(c2ccccc2)OC(c2ccccc2)O1 (stereo not given),inactive: 70%
6,COc1ccc(N2CCN(C(=O)c3cc4c(=O)n(Cc5cccs5)ccc4nc3C)CC2)cc1,inactive: 92%
7,Cc1cc(Cl)ccc1NC(=O)C1CCN(S(=O)(=O)c2ccc3[nH]c(=O)ccc3c2)CC1,inactive: 92%
8,COc1cccc(NC(=O)c2sc3nc(C)c(C(=O)Nc4ccc(C)cc4C)c(-c4ccc(Br)cc4)c3c2N)c1,inactive: 116%
9,COc1ccc(CNC(=O)c2cc3sccc3n2C)cc1,inactive: 50%
10,Cc1ccc(S(=O)(=O)N(Cc2nc(-c3ccc(Cl)cc3)no2)C2CCCCC2)cc1,inactive: 69%
11,O=C(Cn1nnc2ccccc21)Nc1cc(C(F)(F)F)ccc1Cl,inactive: 88%
12,Cc1ccc2oc(C(=O)Nc3c(C(=O)c4ccc(C)c(F)c4)oc4ccccc34)cc(=O)c2c1,inactive: 58%
13,Cc1cc(NC2C3CC4CC(C3)CC2C4)n2ncnc2n1 (stereo not given),inactive: 105%
14,O=S(=O)(Nc1c(F)cccc1F)c1ccc2c(c1)OCCO2,inactive: 63%
15,CCOC(=O)N1CCc2c(sc3c2c(=O)n(Cc2ccccc2)c(=O)n3CC(=O)Nc2ccccc2F)C1,inactive: 72%
16,Cc1ccccc1-c1nnn(C/C(N)=N/O)n1,inactive: 98%
17,COc1ccc(C)cc1NC(=O)C(CCSC)NS(=O)(=O)c1ccc2c(c1)oc(=O)n2C (stereo not given),inactive: 95%
18,CCn1nnc2cc(C(=O)Nc3cccc(C(F)(F)F)c3)ccc21,inactive: 96%
19,CC(C)NC(=O)c1cnc2sc(N3CCCCCC3)nn2c1=O,inactive: 94%
20,COc1ccc(CN(C(=O)Nc2ccccc2)c2ccccn2)cc1OC,inactive: 69%
21,CCOC(=O)c1c(C)[nH]c(CCC(=O)Nc2ccc(N(CC)CC)cc2C)c1C,inactive: 99%
